Reference: the supplement of paper PMC4967469

The cell lines below were run with NC(=O)[C@@H](CCC(F)(F)F)N(Cc1ccc(-c2ncon2)cc1F)S(=O)(=O)c1ccc(Cl)cc1 [BMS-708163] (assay: Viability of human cancer cell lines after 72 h of drug (GDSC screen)). Details: screen: GDSC drug entry 205; top dose inferred.
Procedure: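 Human cancer cell lines in 384-well plates, medium with 10% serum, drug for 72 h over a 256-fold dose range (nine 2-fold or five 4-fold steps up to the top dose). Adherent lines were fixed and stained with the nucleic acid dye Syto60, suspension lines read with resazurin; signal relative to control wells, capped at 0 and 100%. One two-parameter sigmoid per drug and line, fitted in a mixed model over all curves with the slope shared within a line.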

Question: “EW-18 (Ewing sarcoma, suspension, top dose 10.24 µM)” was tested. Which AUC did it give?
Answer: Its AUC is 0.958.

Question: What about the IC50 of the same cell line?
Answer: The IC50 was over 10.2 µM.

Question: For “EW-24 (Ewing sarcoma, semi-adherent, top dose 10.24 µM)”, which AUC is on record?
Answer: Its AUC is 0.993.

Question: And the IC50?
Answer: Its IC50 is over 10.2 µM.

Question: Which AUC does the source give for “EoL-1-cell (haematopoietic neoplasm, suspension, top dose 10.24 µM)” here?
Answer: The AUC was 0.988.

Question: And the IC50?
Answer: The IC50 was over 10.2 µM.

Question: Which AUC does the source give for “FADU (head and neck, adherent, top dose 10.24 µM)” here?
Answer: Its AUC is 0.988.

Question: What about the IC50 of the same cell line?
Answer: The IC50 was over 10.2 µM.

Question: Which results are given for “FLO-1 (oesophagus, adherent, top dose 10.24 µM)”?
Answer: AUC: 0.971; IC50: > 10.2 µM

Question: Which results are given for “FTC-133 (thyroid, adherent, top dose 10.24 µM)”?
Answer: AUC: 0.985; IC50: > 10.2 µM

Question: For “FU97 (stomach, adherent, top dose 10.24 µM)”, which AUC is on record?
Answer: Its AUC is 0.985.

Question: And the IC50?
Answer: Its IC50 is over 10.2 µM.

Question: What does the source list for “FU-OV-1 (ovary, adherent, top dose 10.24 µM)”?
Answer: AUC: 0.977; IC50: > 10.2 µM

Question: With “Farage (B-cell lymphoma, suspension, top dose 10.24 µM)” as the cell line, how does the AUC read?
Answer: The AUC was 0.992.

Question: And the IC50?
Answer: Its IC50 is over 10.2 µM.

Question: Which results are given for “G-292 Clone A141B1 (osteosarcoma, adherent, top dose 10.24 µM)”?
Answer: AUC: 0.972; IC50: > 10.2 µM

Question: Which AUC does the source give for “G-361 (melanoma, adherent, top dose 10.24 µM)” here?
Answer: Its AUC is 0.987.

Question: What about the IC50 of the same cell line?
Answer: The IC50 was over 10.2 µM.

Question: For “G-401 (kidney, adherent, top dose 10.24 µM)”, which AUC is on record?
Answer: The AUC was 0.981.

Question: And the IC50?
Answer: The IC50 was over 10.2 µM.

Question: “G-402 (soft tissue, adherent, top dose 10.24 µM)” was tested. Which AUC did it give?
Answer: The AUC was 0.977.

Question: And the IC50?
Answer: The IC50 was over 10.2 µM.

Question: “G-MEL (melanoma, adherent, top dose 10.24 µM)” was tested. Which AUC did it give?
Answer: The AUC was 0.986.

Question: What about the IC50 of the same cell line?
Answer: Its IC50 is over 10.2 µM.

Question: Which results are given for “GAK (melanoma, adherent, top dose 10.24 µM)”?
Answer: AUC: 0.99; IC50: > 10.2 µM

Question: For “GAMG (glioma, adherent, top dose 10.24 µM)”, which AUC is on record?
Answer: Its AUC is 0.985.

Question: What about the IC50 of the same cell line?
Answer: The IC50 was over 10.2 µM.

Question: “GB-1 (glioma, adherent, top dose 10.24 µM)” was tested. Which AUC did it give?
Answer: Its AUC is 0.982.

Question: What about the IC50 of the same cell line?
Answer: The IC50 was over 10.2 µM.

Question: Which results are given for “GCIY (stomach, adherent, top dose 10.24 µM)”?
Answer: AUC: 0.973; IC50: > 10.2 µM

Question: Which AUC does the source give for “GCT (soft tissue, adherent, top dose 10.24 µM)” here?
Answer: Its AUC is 0.989.

Question: And the IC50?
Answer: Its IC50 is over 10.2 µM.

Question: Which results are given for “GDM-1 (acute myeloid leukaemia, suspension, top dose 10.24 µM)”?
Answer: AUC: 0.985; IC50: > 10.2 µM

Question: What does the source list for “GI-1 (glioma, adherent, top dose 10.24 µM)”?
Answer: AUC: 0.986; IC50: > 10.2 µM

Question: With “GI-ME-N (neuroblastoma, adherent, top dose 10.24 µM)” as the cell line, how does the AUC read?
Answer: The AUC was 0.968.

Question: And the IC50?
Answer: The IC50 was over 10.2 µM.

Question: Which results are given for “GMS-10 (glioma, adherent, top dose 10.24 µM)”?
Answer: AUC: 0.988; IC50: > 10.2 µM

Question: What does the source list for “GOTO (neuroblastoma, adherent, top dose 10.24 µM)”?
Answer: AUC: 0.984; IC50: > 10.2 µM

Question: “GP5d (large intestine, adherent, top dose 10.24 µM)” was tested. Which AUC did it give?
Answer: The AUC was 0.986.

Question: And the IC50?
Answer: The IC50 was over 10.2 µM.

Question: With “GR-ST (lymphoblastic leukaemia, suspension, top dose 10.24 µM)” as the cell line, how does the AUC read?
Answer: Its AUC is 0.981.

Question: What about the IC50 of the same cell line?
Answer: Its IC50 is over 10.2 µM.

Question: With “GRANTA-519 (B-cell lymphoma, suspension, top dose 10.24 µM)” as the cell line, how does the AUC read?
Answer: Its AUC is 0.989.

Question: And the IC50?
Answer: Its IC50 is over 10.2 µM.

Question: For “GT3TKB (stomach, adherent, top dose 10.24 µM)”, which AUC is on record?
Answer: Its AUC is 0.99.

Question: And the IC50?
Answer: The IC50 was over 10.2 µM.

Question: With “H4 (glioma, adherent, top dose 10.24 µM)” as the cell line, how does the AUC read?
Answer: The AUC was 0.986.

Question: And the IC50?
Answer: Its IC50 is over 10.2 µM.

Question: For “H9 (lymphoid neoplasm, suspension, top dose 10.24 µM)”, which AUC is on record?
Answer: The AUC was 0.986.

Question: What about the IC50 of the same cell line?
Answer: Its IC50 is over 10.2 µM.

Question: “H290 (mesothelioma, adherent, top dose 10.24 µM)” was tested. Which AUC did it give?
Answer: The AUC was 0.988.

Question: What about the IC50 of the same cell line?
Answer: The IC50 was over 10.2 µM.

Question: “H513 (mesothelioma, semi-adherent, top dose 10.24 µM)” was tested. Which AUC did it give?
Answer: Its AUC is 0.973.

Question: What about the IC50 of the same cell line?
Answer: The IC50 was over 10.2 µM.

Question: How did the AUC turn out when “H2369 (mesothelioma, adherent, top dose 10.24 µM)” was run?
Answer: The AUC was 0.987.

Question: And the IC50?
Answer: Its IC50 is over 10.2 µM.

Question: “H2373 (mesothelioma, adherent, top dose 10.24 µM)” was tested. Which AUC did it give?
Answer: The AUC was 0.983.

Question: And the IC50?
Answer: The IC50 was over 10.2 µM.

Question: Which AUC does the source give for “H2461 (mesothelioma, adherent, top dose 10.24 µM)” here?
Answer: The AUC was 0.983.

Question: And the IC50?
Answer: Its IC50 is over 10.2 µM.

Question: What does the source list for “H2591 (mesothelioma, adherent, top dose 10.24 µM)”?
Answer: AUC: 0.977; IC50: > 10.2 µM

Question: Which AUC does the source give for “H2595 (mesothelioma, adherent, top dose 10.24 µM)” here?
Answer: The AUC was 0.98.

Question: And the IC50?
Answer: The IC50 was over 10.2 µM.

Question: “H2722 (mesothelioma, adherent, top dose 10.24 µM)” was tested. Which AUC did it give?
Answer: Its AUC is 0.967.

Question: What about the IC50 of the same cell line?
Answer: Its IC50 is over 10.2 µM.

Question: “H2731 (mesothelioma, adherent, top dose 10.24 µM)” was tested. Which AUC did it give?
Answer: Its AUC is 0.914.

Question: And the IC50?
Answer: Its IC50 is over 10.2 µM.

Question: “H2795 (mesothelioma, adherent, top dose 10.24 µM)” was tested. Which AUC did it give?
Answer: The AUC was 0.977.

Question: And the IC50?
Answer: Its IC50 is over 10.2 µM.

Question: Which results are given for “H2803 (mesothelioma, adherent, top dose 10.24 µM)”?
Answer: AUC: 0.98; IC50: > 10.2 µM

Question: What does the source list for “H2804 (mesothelioma, adherent, top dose 10.24 µM)”?
Answer: AUC: 0.972; IC50: > 10.2 µM

Question: Which AUC does the source give for “H2818 (mesothelioma, adherent, top dose 10.24 µM)” here?
Answer: The AUC was 0.987.

Question: What about the IC50 of the same cell line?
Answer: Its IC50 is over 10.2 µM.

Question: For “H2869 (mesothelioma, adherent, top dose 10.24 µM)”, which AUC is on record?
Answer: The AUC was 0.946.

Question: And the IC50?
Answer: Its IC50 is over 10.2 µM.

Question: Which results are given for “H3118 (head and neck, adherent, top dose 10.24 µM)”?
Answer: AUC: 0.983; IC50: > 10.2 µM

Question: With “H3255 (lung adenocarcinoma, adherent, top dose 10.24 µM)” as the cell line, how does the AUC read?
Answer: The AUC was 0.983.

Question: What about the IC50 of the same cell line?
Answer: The IC50 was over 10.2 µM.

Question: Which results are given for “H-EMC-SS (chondrosarcoma, adherent, top dose 10.24 µM)”?
Answer: AUC: 0.977; IC50: > 10.2 µM

Question: Which results are given for “HA7-RCC (kidney, adherent, top dose 10.24 µM)”?
Answer: AUC: 0.984; IC50: > 10.2 µM

Question: What does the source list for “HAL-01 (lymphoblastic leukaemia, suspension, top dose 10.24 µM)”?
Answer: AUC: 0.989; IC50: > 10.2 µM

Question: With “HARA (lung squamous cell carcinoma, adherent, top dose 10.24 µM)” as the cell line, how does the AUC read?
Answer: The AUC was 0.966.

Question: And the IC50?
Answer: Its IC50 is over 10.2 µM.

Question: Which results are given for “HC-1 (hairy cell leukaemia, suspension, top dose 10.24 µM)”?
Answer: AUC: 0.923; IC50: > 10.2 µM

Question: Which AUC does the source give for “HCC38 (breast, adherent, top dose 10.24 µM)” here?
Answer: Its AUC is 0.977.

Question: What about the IC50 of the same cell line?
Answer: The IC50 was over 10.2 µM.

Question: For “HCC70 (breast, adherent, top dose 10.24 µM)”, which AUC is on record?
Answer: The AUC was 0.986.

Question: And the IC50?
Answer: The IC50 was over 10.2 µM.

Question: Which AUC does the source give for “HCC1143 (breast, adherent, top dose 10.24 µM)” here?
Answer: Its AUC is 0.98.

Question: And the IC50?
Answer: The IC50 was over 10.2 µM.

Question: With “HCC1187 (breast, suspension, top dose 10.24 µM)” as the cell line, how does the AUC read?
Answer: Its AUC is 0.986.

Question: And the IC50?
Answer: Its IC50 is over 10.2 µM.

Question: “HCC1395 (breast, adherent, top dose 2.56 µM)” was tested. Which AUC did it give?
Answer: The AUC was 0.982.

Question: What about the IC50 of the same cell line?
Answer: The IC50 was over 2.56 µM.

Question: Which results are given for “HCC1419 (breast, adherent, top dose 10.24 µM)”?
Answer: AUC: 0.982; IC50: > 10.2 µM

Same assay, conditions: top dose 5 µM; screen: GDSC drug entry 1072; top dose inferred

Question: What does the source list for FLO-1 (oesophagus, adherent)?
Answer: AUC: 0.976; IC50: > 5 µM

Question: Which AUC does the source give for G-MEL (melanoma, adherent) here?
Answer: Its AUC is 0.986.

Question: And the IC50?
Answer: Its IC50 is over 5 µM.

Question: H513 (mesothelioma, semi-adherent) was tested. Which AUC did it give?
Answer: The AUC was 0.967.

Question: And the IC50?
Answer: The IC50 was over 5 µM.

Question: Which results are given for H2810 (mesothelioma, adherent)?
Answer: AUC: 0.973; IC50: > 5 µM

Lines with a small IC50 respond at low doses; a limit (>, <) means that the fit lies beyond the doses tested. AUC is the area under the same curve over the 256-fold range up to the top dose, as a fraction; values near 1 show little effect. Any top dose called inferred is not printed in the source and was worked back from the curve model. Where an entry number is given, a second screen of the drug exists; the two often differ.
